The campaign covered roughly 420,000 compounds. About 50,000 (12%) were called active. The shares of active, inactive and inconclusive entries below differ from those in the screen. Calls come from the whole dose curve; as a rule, active = well fitted inhibition curve with a large enough effect; inconclusive = small, poorly fitted or top-dose-only effect; inactive = flat fitted curve, though single readings scatter. Potencies of inconclusive entries are left out as doubtful fits.
Assay: qHTS for Inhibitors of human tyrosyl-DNA phosphodiesterase 1 (TDP1): qHTS in cells in presence of CPT; note: nearly all actives have a fitted effect of over 55% in size
Details: chicken DT40 Tdp1-/-;hTDP1 cells + 20 nM CPT, ATP luminescence, 48 h; activity change, negative = growth inhibition: at 46.2 µM (top of the series) unless noted
Outline: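 Chicken DT40 Tdp1-/- cells complemented with human TDP1, 400 cells/well, exposed to compounds plus 20 nM camptothecin for at least 48 h at 37 C; viability read as ATP content by CellTiter-Glo luminescence.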
% is set by controls: 0 for no effect and ±100 for the full control effect; potency is the fitted concentration of half-maximal effect; tags give direction and shape of the fitted curve.

Row | Structure (SMILES) | Potency | activity change, negative = growth inhibition
1 | O=C(/C=C\c1ccccc1)Oc1cccc2cccnc12 | inconclusive [inhibitor, full curve, poor fit] | –
2 | Cc1nn(CC(=O)NNC(=O)c2ccccc2F)c([N+](=O)[O-])c1Br | – | inactive: 5.49%
3 | C=CC(=O)NCCCc1cc(C(C)(C)C)c(O)c(C(C)(C)C)c1 | inconclusive [inhibitor, single point] | –
4 | Cc1ccc(S(=O)(=O)N2CCN(Cc3nc4sc5c(c4c(=O)[nH]3)CCCC5)CC2)cc1 | inconclusive [inhibitor, single point] | –
5 | Cc1ccc(-n2c(=O)c3ccc(C(=O)NCc4ccccc4Cl)cc3n(Cc3ccccc3F)c2=O)cc1 | – | inactive: -6.73%
6 | CN1C(=O)CC(N2CCN(c3ncccn3)CC2)C1=O (stereo unspecified) | inconclusive [inhibitor, single point] | –
7 | COc1ccc(N2CCN(CCCNC(=O)C(=O)c3c[nH]c4ccccc34)CC2)cc1 | inconclusive [inhibitor, single point] | –
8 | CCc1ccc(NC(=O)CCc2ccc(C)o2)cc1 | inconclusive [inhibitor, single point] | –
9 | Cn1nc(C(=O)OCC(=O)N2CCc3ccccc32)c2ccccc2c1=O | – | inactive: -6.06%
10 | O=[N+]([O-])c1ccc(/C=N/Nc2ccnc3cc(Cl)ccc23)o1 | active: 14.6 µM | –
11 | COc1cccc(C2c3[nH]c4ccccc4c3CCN2Cc2cnc(C)s2)c1OC (stereo unspecified) | inconclusive [inhibitor, single point] | –
12 | Cc1nc2ccc(NC(=O)c3cccc(S(=O)(=O)N(C)c4ccccc4)c3)cc2s1 | active: 3.66 µM | –
13 | Cc1ccc(N(CC(O)CN2CCOCC2)S(=O)(=O)c2ccc3ccccc3c2)cc1 (stereo unspecified) | inconclusive [inhibitor, single point] | –
14 | CC(=O)c1cc(CN2CCC(C(=O)Nc3cccc(-c4cscn4)c3)CC2)cs1 | inconclusive [inhibitor, single point] | –
15 | CCc1ccc(CN(Cc2cn[nH]c2-c2ccc(OC)cc2)C(=O)Nc2ccc(C)c(F)c2)cc1 | active: 20.6 µM | –
16 | CCOC(=O)c1sc(NC(=O)CN2CCN(c3ccc(OC)cc3)CC2)nc1C | – | inactive: 21.6%
17 | CC1CCN(CCCNC(=O)c2cc(Sc3ccc(F)cc3)nc3ccccc23)CC1 | active: 23.1 µM | –
18 | O=C(Nc1ccccc1C(=O)N1CCCC1)c1ncoc1-c1cccc(Cl)c1 | inconclusive [inhibitor, partial curve] | –
19 | N=c1c(S(=O)(=O)c2ccccc2)cc2c(=O)n3ccccc3nc2n1Cc1ccco1 | inconclusive [inhibitor, single point] | –
20 | Cc1cc(C)cc(SCc2noc(C(=O)NCCCN3CCOCC3)c2C(=O)NCCCN2CCOCC2)c1 | inconclusive [inhibitor, single point] | –
21 | O=C(NC1CCCC1)C1CCN(C(=O)c2cccc(Cl)c2)CC1 | – | inactive: 8.41%
22 | COc1ccccc1C(=O)C1CCCN(C(=O)c2ccc(Cl)cc2)C1 (stereo unspecified) | inconclusive [inhibitor, single point] | –
23 | CN(Cc1ccccc1)S(=O)(=O)c1ccc(Cl)c(C(=O)NCCCN2CCCC2=O)c1 | inconclusive [inhibitor, single point] | –
24 | CC(/C=N/NC(=O)c1nnn(-c2nonc2N)c1CN1CCCCC1)=C\c1ccccc1 | inconclusive [inhibitor, single point] | –

Row | Structure (SMILES) | Potency | activity change, negative = growth inhibition
25 | COc1cccc(-c2nnc(SCC(=O)NCc3ccc4c(c3)OCO4)n2Cc2ccco2)c1 | – | inactive: 1.01%
26 | O=C(COC(=O)c1ccccc1NC(=O)c1ccco1)Nc1ccc2c(c1)OC(F)(F)O2 | – | inactive: -10.2%
27 | Cc1cc(Br)c(NC(=O)CN(C)CCOc2ccccc2)c(Br)c1 | inconclusive [inhibitor, single point] | –
28 | Cc1cc(C)c(CN2CCN(C(=O)Cn3ccc(NC(=O)OCc4ccccc4)nc3=O)CC2)c(C)c1 | active: 5.17 µM | –
29 | CCOC(=O)N(C)c1c(CC)nc2c(OCCOc3ccccc3)cccn12 | inconclusive [inhibitor, single point] | –
30 | Cc1ccc(NC(=O)CNC(=O)c2ccc(C(C)(C)C)cc2)cc1S(=O)(=O)N1CCOCC1 | inconclusive [inhibitor, single point] | –
31 | COc1ccc(Nc2nc(N)c(C(=O)c3ccc(F)cc3)s2)cc1 | active: 0.731 µM | –
32 | Cc1ccccc1OCC(=O)Nc1ccc2c(c1)Cc1ccccc1-2 | – | inactive: -5.77%
33 | Cn1nc2c3cc(F)ccc3n(Cc3ccc(F)cc3)cc-2c1=O | – | inactive: 6.18%
34 | CSc1nnc(NC(=O)Cc2coc3cc(C)ccc23)s1 | – | inactive: -3.82%
35 | COc1cccc2c(=O)cc(C)n(CC(=O)Nc3cccc(C)c3)c12 | inconclusive [inhibitor, single point] | –
36 | COC(=O)[C@@]1(Cc2ccccc2)[C@H]2C(=O)N(Cc3ccccc3)C(=O)[C@H]2[C@H]2CN=C(SCc3ccc(Cl)cc3)N21 | inconclusive [inhibitor, single point] | –
37 | CCCC(=O)Nc1ccc(C(=O)N/N=C/c2ccc[nH]2)cc1 | – | inactive: -17.9%
38 | CCOC(=O)c1c(-c2ccccc2)oc2ccc(NS(=O)(=O)c3ccc(C)cc3C)cc12 | inconclusive [inhibitor, single point] | –
39 | O=S(=O)(c1ccccc1)N1CCN(C2CCCCCCC2)CC1 | inconclusive [inhibitor, partial curve, poor fit] | –
40 | Cc1cc(C(=O)Nc2cccc(C)c2C)c2ccccc2n1 | – | inactive: 0.546%
41 | Cc1ccc(NC(=O)c2oc3ccccc3c2NC(=O)c2ccccc2C)cc1 | inconclusive [inhibitor, single point] | –
42 | CC1CC(C)CN(C(=O)CSC2=Nc3ccccc3C3=NC(Cc4c[nH]c5ccccc45)C(=O)N23)C1 (stereo unspecified) | inconclusive [inhibitor, single point] | –
43 | Cc1c(C(=O)NCC(c2ccco2)N2CCCC2)oc2ccc(Cl)cc12 (stereo unspecified) | active: 20.6 µM | –
44 | CCc1nccn1CCC(=O)N1CCCC(N2CCN(c3cccc(Cl)c3)CC2)C1 (stereo unspecified) | – | inactive: -5.75%
45 | Cc1ccc(N2C(=O)CC(C)CC2=O)cc1 | – | inactive: 5.09%
46 | Cc1ccc(-c2nnn(CC(=O)N(CC(=O)NC3CCCCC3)c3cccc(F)c3)n2)o1 | – | inactive: 1.16%
47 | O=C(NCCc1ccccc1)c1c(F)c(F)c(F)c(F)c1F | – | inactive: -0.565%
48 | CN(CC(=O)Nc1cccc(F)c1)C(=O)/C=C/c1cn(Cc2ccccc2)nc1-c1cccnc1 | inconclusive [inhibitor, single point] | –

Row | Structure (SMILES) | Potency | activity change, negative = growth inhibition
49 | COc1ccccc1CCN1C(=S)NC(C)(C)CC1(C)O (stereo unspecified) | inconclusive [inhibitor, single point] | –
50 | O=C(Nc1nc(-c2cccs2)cs1)c1ccc(S(=O)(=O)N2CCCCC2)cc1 | inconclusive [inhibitor, single point] | –
51 | CSc1ccccc1NC(=O)CSc1nnnn1-c1ccccc1SC | inconclusive [inhibitor, single point] | –
52 | CCOc1cc(/C=N/NC(=O)C(OC)c2ccccc2)ccc1O (stereo unspecified) | – | inactive: -0.44%
53 | Cc1cc(C)c(NC(=O)CSc2ccc(-c3sc(-c4ccccc4)nc3C)nn2)c(C)c1 | active: 23.1 µM | –
54 | O=C(c1[nH]c(C(F)(F)F)nc1-c1ccccc1)N1CCN(c2ccccc2)CC1 | active: 4.61 µM | –
55 | Cn1c(-c2ccc3c(c2)OCO3)cnc1NCc1ccc(Cl)cc1 | inconclusive [inhibitor, single point] | –
56 | N#C/C(=C\c1ccc([N+](=O)[O-])cc1)c1ccccn1 | inconclusive [inhibitor, single point] | –
57 | CCN(CC)c1cc(C)c2cc(NC(=O)c3ccccc3OC)ccc2n1 | inconclusive [inhibitor, single point] | –
58 | CCSc1nc(-c2ccccc2)c(C#N)c(=O)[nH]1 | – | inactive: 4.5%
59 | COc1cc2ccccc2cc1C(=O)N/N=C/c1cccs1 | active: 2.31 µM | –
60 | CCn1c(=O)c2sccc2n2c(CCCC(=O)N3CCN(c4cc(Cl)ccc4C)CC3)nnc12 | active: 11.6 µM | –
61 | Cc1cc(OCC(=O)Nc2ccccc2C(N)=O)c2c(C)cc(=O)oc2c1 | inconclusive [inhibitor, single point] | –
62 | COC(=O)C1=C(C(=O)OC)[C@@H]2Nc3ccccc3[C@@]23C[C@@H](C(=O)OC)N(C(=O)c2ccc(Br)cc2)C3=N1 | inconclusive [inhibitor, single point] | –
63 | Cc1ccc(S(=O)(=O)/N=C(/Nc2ccc3[nH]c(=O)[nH]c3c2)c2ccc(F)cc2)cc1 | – | inactive: -3.95%
64 | COc1ccc(/C=C2\C(=O)ON=C2c2ccccc2)cc1 | inconclusive [inhibitor, single point] | –
65 | Cc1nc2ccccn2c1-c1ccnn1S(=O)(=O)c1ccc(F)cc1 | active: 20.6 µM | –
66 | Cc1cccc(C)c1NC(=S)NN(Cc1ccccc1)c1ccccc1 | inconclusive [inhibitor, single point] | –
67 | Cc1nc(-c2cccc(S(=O)(=O)N3CCCC(C)C3)c2)cs1 (stereo unspecified) | active: 14.6 µM | –
68 | N#Cc1cnc(Sc2ccccc2)nc1 | inconclusive [inhibitor, single point] | –
69 | Cc1cc(C)c(OCCNC(=O)c2ccccc2Sc2ccccc2C#N)c(C)c1 | active: 18.4 µM | –
70 | C=CCOc1ccc(/C=C2/C(=N)N3N=C(CC(=O)N4CCCC4)SC3=NC2=O)cc1OC | – | inactive: -1.58%
71 | O=C(CNC(=O)C12CC3CC(CC(C3)C1)C2)N1CCN(S(=O)(=O)/C=C/c2ccccc2)CC1 | inconclusive [inhibitor, single point] | –

From PubChem BioAssay AID686979 (National Center for Advancing Translational Sciences (NCATS), 2013)
